According to paper PMC4336329 (PLoS ONE, 2015):
The campaign covered roughly 310,000 compounds. About 2,200 (0.71%) showed an effect of 50% or more. The effect is printed as a negative number. The list shows a part of the results.

target: human ether-à-go-go-related gene (hERG) potassium channel (human, UniProt Q12809); assay: primary screen, population patch clamp on CHO cells stably expressing hERG
Sequence (Q12809 whole entry, looked up): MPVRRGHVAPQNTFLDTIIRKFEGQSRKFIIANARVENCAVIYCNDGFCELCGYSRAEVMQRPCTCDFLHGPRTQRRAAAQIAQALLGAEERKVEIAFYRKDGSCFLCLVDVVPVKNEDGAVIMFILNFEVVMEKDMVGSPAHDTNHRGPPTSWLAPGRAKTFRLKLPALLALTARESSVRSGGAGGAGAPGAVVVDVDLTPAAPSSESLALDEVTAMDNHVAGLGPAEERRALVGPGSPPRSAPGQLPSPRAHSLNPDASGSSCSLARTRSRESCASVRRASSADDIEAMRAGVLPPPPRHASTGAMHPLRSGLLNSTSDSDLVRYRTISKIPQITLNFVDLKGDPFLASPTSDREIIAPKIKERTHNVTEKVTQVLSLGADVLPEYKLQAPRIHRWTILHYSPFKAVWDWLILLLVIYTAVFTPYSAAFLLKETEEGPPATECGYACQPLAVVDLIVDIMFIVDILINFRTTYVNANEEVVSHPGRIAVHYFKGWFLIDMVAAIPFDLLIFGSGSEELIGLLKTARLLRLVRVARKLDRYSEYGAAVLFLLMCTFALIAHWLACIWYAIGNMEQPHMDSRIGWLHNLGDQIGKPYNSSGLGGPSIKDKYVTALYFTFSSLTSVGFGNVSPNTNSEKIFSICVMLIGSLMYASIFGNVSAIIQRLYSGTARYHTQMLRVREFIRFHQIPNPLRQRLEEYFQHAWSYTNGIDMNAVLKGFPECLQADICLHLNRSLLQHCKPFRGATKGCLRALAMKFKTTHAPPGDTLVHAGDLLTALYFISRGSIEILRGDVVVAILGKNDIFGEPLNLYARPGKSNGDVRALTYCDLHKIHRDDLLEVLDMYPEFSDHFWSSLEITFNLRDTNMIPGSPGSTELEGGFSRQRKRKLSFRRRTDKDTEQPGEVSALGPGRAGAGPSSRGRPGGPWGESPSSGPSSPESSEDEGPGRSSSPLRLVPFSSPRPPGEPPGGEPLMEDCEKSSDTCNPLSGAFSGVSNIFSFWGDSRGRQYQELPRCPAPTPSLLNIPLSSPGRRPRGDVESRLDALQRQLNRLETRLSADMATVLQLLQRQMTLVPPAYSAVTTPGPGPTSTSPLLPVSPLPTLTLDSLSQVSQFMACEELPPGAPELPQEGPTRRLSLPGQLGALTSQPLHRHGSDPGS

| SMILES | hERG current change (%, negative = inhibition) at 1uM [%] |
| --- | --- |
| O=C(CSc1nnc(-c2ccccc2)c(-c2ccccc2)n1)N1CCOCC1 | -4.68 |
| O=C1C2C(c3ccccc3)C=CC(c3ccccc3)C2C(=O)N1c1cccnc1 (centres unmarked) | 11.2 |
| O=C(CNC(=O)c1ccco1)Nc1ccc(Cl)cc1 | 17.1 |
| O=C(NCc1ccccn1)C(=O)NCC1OCCN1S(=O)(=O)c1ccc(Cl)cc1 (centres unmarked) | 6.39 |
| Cc1ccnc(-n2c(-c3ccccc3)nc3ccccc3c2=O)c1 | 7.16 |
| CCC(=O)Nc1ccccc1C(=O)OC(c1ccccc1)c1ccccc1 | -1.77 |
| Cc1sc(NC(=S)NC(=O)c2ccco2)c(C#N)c1C | 0.978 |
| COC(=O)c1oc2c(c1C)C(=O)CCC2 | 7.67 |
| O=C(O)c1ccc(S(=O)(=O)N2CCC(c3nc(-c4ccccc4Cl)no3)CC2)cc1 | 14.1 |
| CC1Cc2ccccc2N1C(=S)NC(=O)c1ccco1 (centres unmarked) | 13.5 |
| Cc1ccccc1NC(=O)CN1C(=O)COc2ccc(Cl)cc21 | 9.12 |
| COC(=O)c1cccc(S(=O)(=O)N(Cc2ccco2)Cc2cc3cc(OC)c(OC)cc3[nH]c2=O)c1 | 0.006 |
| CN(C(=O)CN1C(=O)NC(C)(c2cccc(Br)c2)C1=O)C1CCCCC1 (centres unmarked) | 9.44 |
| COc1ccc(-c2[nH]ncc2CN2CCCN(c3ccccc3)CC2)c(F)c1 | 9.52 |
| COc1cc2c(C(=O)O)c(C)n(C)c2cc1Br | 14.7 |
| CCOC(=O)N1N=C(CC)CC1(O)C(F)(F)F (centres unmarked) | 4.11 |
| CC(=O)c1cccc(-n2nnnc2SCC(=O)NNC(=O)C(C)C)c1 | 12.9 |
| Cc1ccccc1Nc1nnc(C)c(=O)[nH]1 | -5.49 |
| Cc1[nH]c(C)c(S(=O)(=O)N2CCN(c3cccc(Cl)c3)CC2)c1C(=O)N1CCCCC1 | 12.3 |
| Cn1c(Cc2cccs2)nnc1SCC(=O)N1CCc2ccccc21 | 0.0674 |

| SMILES | hERG current change (%, negative = inhibition) at 1uM [%] |
| --- | --- |
| NC(=O)c1ccccc1OCc1cccc2ccccc12 | 15.5 |
| CC(C)(C)c1cc(N)on1 | 14 |
| C=CCSc1nnc(-c2ccc([N+](=O)[O-])cc2)o1 | 7.94 |
| COc1ccc(-c2nnc(-c3ccc(N)cc3)o2)cc1 | 11.8 |
| Cc1occc1C(=O)NNC(=O)Cc1ccccc1 | 11.7 |
| CCNc1ccc(C(=O)OCC(=O)NCc2ccccc2Cl)cc1[N+](=O)[O-] | 0.92 |
| O=C1CC(NS(=O)(=O)c2ccccc2F)CN1c1ccc2c(c1)OCCO2 (centres unmarked) | 3.81 |
| Cc1ccc(NC(=O)COC(=O)CSC(=S)N2CCOCC2)cc1C | 21.3 |
| Cc1cccc(OCC(=O)N/N=C/c2cn[nH]c2-c2ccc(Cl)c(Cl)c2)c1 | 11.8 |
| CCN(CC)C(=O)CSc1nc2ccccc2c(=O)n1CCC(=O)N1CCN(c2ccccc2)CC1 | -7.16 |
| CCn1c(SCC(=O)NC2CCCCC2)nc2c(c1=O)SCC2 | 15.7 |
| CCc1ccc2c(CN3CCN(Cc4ccccc4)CC3)cc(=O)oc2c1 | -84.6 |
| COc1ccc(/C=N/NC(=O)CNC(=O)c2ccncc2)cc1OC | 14.1 |
| CC(C)(C)C(=O)Nc1nnc(SCC(=O)NC2CC2)s1 | 13.5 |
| COc1ccc(CCNC(=O)C2CCN(S(=O)(=O)c3c(C)noc3C)CC2)cc1OC | 1.05 |
| N#Cc1ccc(OCc2ccc(C(=O)O)o2)cc1 | 9.58 |
| Cc1ccc(S(=O)(=O)c2ccccc2)cc1S | 1.9 |
| CC1(C)CC(=O)C2=C(C1)Nc1ccccc1NC2c1cc(Cl)ccc1O (centres unmarked) | 3.3 |
| CCOC(=O)c1sc2nc(NC(=O)C3CCCCC3)sc2c1C | 15.5 |
| CCn1c(SCC(=O)NC2CCCCC2)nc2c(c1=O)SC(C)C2 (centres unmarked) | 3.36 |

| SMILES | hERG current change (%, negative = inhibition) at 1uM [%] |
| --- | --- |
| Cc1ccc(S(=O)(=O)NCCC(=O)NCc2ccc(Cl)cc2)cc1C | 5.14 |
| O=C(O)c1ccc(N/N=C/c2ccc3c(c2)OCO3)cc1 | 12.6 |
| COC(=O)CSc1nc2ccccc2n1CC(=O)N(C(C)C)C(C)C | -25 |
| Nc1nnnn1/N=C/c1cc([N+](=O)[O-])ccc1O | 17.5 |
| COc1ccc(C2CCCN2C(=S)Nc2ccc(C)cc2Cl)cc1OC (centres unmarked) | 5.08 |
| COc1ccc(NC(=O)c2nn(C)cc2[N+](=O)[O-])cc1 | 12.2 |
| CCCC(=O)Nc1ccc(C(=O)NCC2CCCO2)cc1 (centres unmarked) | -11.7 |
| CCOc1ccc(S(=O)(=O)N2CCOCC2)cc1NC(=O)CSCC(=O)Nc1cccc(C)c1 | 3.34 |
| CC(=O)Nc1ccc(S(=O)(=O)Nc2cccc(-n3c(C)nc4ccccc4c3=O)c2)cc1 | 10.8 |
| Nc1c(Cl)ncnc1NCCO | 10.9 |
| CCc1ccc(NC(=O)c2ccc(F)c(S(=O)(=O)N(CC)c3ccccc3)c2)cc1 | 13.4 |
| CCOC(=O)c1c(C)[nH]c(C)c1S(=O)(=O)NCC1CCN(Cc2ccc(C)cc2)CC1 | -9.26 |
| CN1CC(=O)N(CC(=O)Nc2ccc(Br)cc2F)C1=O | 0.736 |
| COc1ccc(C2=NOC(C(=O)Nc3cccnc3)C2)cc1OC (centres unmarked) | -3.13 |
| Cc1ccsc1C(=O)OCC(=O)NC1CCCC1 | 17.7 |
| COc1cccc(N2C(=O)[C@H]3C(C(=O)c4cnccn4)=NN[C@H]3C2=O)c1 | 9.34 |
| CSc1ccccc1OCc1cc(C(=O)N2CCCC2c2nonc2C)no1 (centres unmarked) | 13.7 |
| Cc1ccc2c(c1)cc(C(=O)NCc1ccccc1)n2C | 16.2 |
| CCCCn1c(N)c(N(C)C(=O)c2ccc(Br)o2)c(=O)[nH]c1=O | 7.35 |
